# Hit rate of the full screen: of about 310,000 compounds, about 2,200 (0.71%) showed an effect of 50% or more. The effect is printed as a negative number. The list shows a part of the results.
# Biological target: human ether-à-go-go-related gene (hERG) potassium channel (human, UniProt Q12809)
# Assay: primary screen, population patch clamp on CHO cells stably expressing hERG
# Sequence of human ether-à-go-go-related gene (hERG) potassium channel (Q12809 whole entry, looked up): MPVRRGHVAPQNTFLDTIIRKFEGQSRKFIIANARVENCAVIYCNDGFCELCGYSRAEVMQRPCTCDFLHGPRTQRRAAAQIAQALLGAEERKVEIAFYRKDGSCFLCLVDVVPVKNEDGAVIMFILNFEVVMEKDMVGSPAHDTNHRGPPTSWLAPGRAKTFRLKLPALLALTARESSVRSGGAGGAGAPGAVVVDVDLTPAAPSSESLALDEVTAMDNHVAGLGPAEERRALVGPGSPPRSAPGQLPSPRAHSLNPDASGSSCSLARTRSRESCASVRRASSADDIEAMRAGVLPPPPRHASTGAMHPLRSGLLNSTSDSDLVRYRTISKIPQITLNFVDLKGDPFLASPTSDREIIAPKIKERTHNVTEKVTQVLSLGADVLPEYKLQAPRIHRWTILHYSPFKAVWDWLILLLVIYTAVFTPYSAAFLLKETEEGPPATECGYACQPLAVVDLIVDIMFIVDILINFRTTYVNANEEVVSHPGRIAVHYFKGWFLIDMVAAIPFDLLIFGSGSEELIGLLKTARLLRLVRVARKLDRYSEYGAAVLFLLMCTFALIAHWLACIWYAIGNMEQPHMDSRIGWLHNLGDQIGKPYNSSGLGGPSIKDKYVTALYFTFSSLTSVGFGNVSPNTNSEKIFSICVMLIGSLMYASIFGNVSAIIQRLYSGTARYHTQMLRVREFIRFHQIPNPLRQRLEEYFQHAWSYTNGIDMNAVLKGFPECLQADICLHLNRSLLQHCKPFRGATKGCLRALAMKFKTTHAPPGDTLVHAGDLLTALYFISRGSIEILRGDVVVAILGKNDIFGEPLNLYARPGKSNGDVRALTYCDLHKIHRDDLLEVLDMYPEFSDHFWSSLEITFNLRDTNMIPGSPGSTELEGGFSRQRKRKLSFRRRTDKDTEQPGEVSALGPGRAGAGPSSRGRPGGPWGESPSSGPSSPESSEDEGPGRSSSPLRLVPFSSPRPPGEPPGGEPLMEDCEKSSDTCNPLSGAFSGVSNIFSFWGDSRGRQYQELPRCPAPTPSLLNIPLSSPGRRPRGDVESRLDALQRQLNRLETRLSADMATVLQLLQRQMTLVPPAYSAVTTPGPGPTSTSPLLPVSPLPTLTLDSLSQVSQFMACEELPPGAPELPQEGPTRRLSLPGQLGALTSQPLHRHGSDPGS
row,SMILES,"hERG current change (%, negative = inhibition) at 1uM [%]"
1,O=C(CN1CCN(c2ccccc2O)CC1)Nc1cc(S(=O)(=O)N2CCCC2)ccc1Cl,-7.45
2,CNS(=O)(=O)c1cc(C(=O)O)ccc1OC,-5.92
3,Cc1ccc(N2C(=O)N3[C@H](c4ccc(Cl)cc4)[C@@H]4C(=O)N(C5CCCCC5)C(=O)[C@@H]4[C@]3(Cc3ccccc3)C2=O)cc1,8.52
4,CCCCC(=O)NC(c1ccccc1Cl)c1ccc2cccnc2c1O (stereo not shown),14.9
5,Cc1nn(CC(=O)NCCCN2CCOCC2)c(C)c1[N+](=O)[O-],-18.9
6,CCn1c(=O)c2cc(C(=O)N(C)CC(OC)OC)sc2c2ccccc21,13
7,O=C(c1cnn(C(=O)CN2CCCC2=O)c1)c1ccccc1O,6.39
8,O=C(c1cc(COc2ccc(F)cc2Cl)on1)N1CCN(C2CCCCC2)C(=O)C1,-18.8
9,O=c1[nH]c(=O)n(Cc2ccco2)c(O)c1/C=N/N1CCCCCC1,-4.12
10,COc1ccc(CNS(=O)(=O)c2ccc(-c3cnc(C4CC4)o3)cc2)cc1,7.89
11,COc1ccc(NCc2nnc(SCC(=O)Nc3ccc(OC)cc3OC)o2)cc1,-2.7
12,Cn1cc(S(=O)(=O)Nc2ccc(Cl)cc2Cl)c(=O)n(C)c1=O,11.6
13,CC1Cc2ccccc2N1C(=O)c1cnc2n(c1=O)CCS2 (stereo not shown),14.7
14,Cc1cc(C(=O)OCC(=O)NC2CCS(=O)(=O)C2)c2ccccc2n1 (stereo not shown),3.65
15,C#CCOCCOCCOCCNc1nc(N2CCN(C(=O)CCCCCCCCCCNC(=O)[C@@H](CCSC)n3cc(CCO)nn3)CC2)nc(N2CCN(C(=O)CCCCCCCCCCNC(=O)[C@H]([C@@H](C)CC)n3cc(CCCCCN)nn3)CC2)n1,14.6
16,C[n+]1cc(C(=O)N2CCCCC2)ccc1/C=C/c1c[nH]c2ccccc12.[I-],12.2
17,Cc1ccc(-c2cc(C(=O)N3CCN(c4ccccc4O)CC3)c3ccccc3n2)o1,-20.5
18,CCOC(=O)N1CCC(N2CC34C=CC(O3)C(C(=O)Nc3ccc(C)cc3)C4C2=O)CC1 (stereo not shown),10.5
19,COc1ccccc1-n1cnc2cc(NCc3ccccn3)ccc21,-6.77
20,CCOC(=O)N1C2C=C(C)[C@@H]2[C@@H]2CC(=O)N21 (stereo partly shown),10.9
21,CC1CCN(C(=O)C2CCN(c3nnc(-n4cccc4)s3)CC2)CC1,12.4
22,Cc1cccc(OCC(=O)NNC(=O)c2cc3ccccc3oc2=O)c1,7.04

row,SMILES,"hERG current change (%, negative = inhibition) at 1uM [%]"
1,COc1ccccc1Oc1ccccc1[N+](=O)[O-],10.7
2,O=C(NCc1ccccn1)C1CCN(Cc2cccc(OCc3ccccc3)c2)CC1.O=C(O)C(=O)O,-1.41
3,C=CCn1c2ccccc2c(=O)c2cc(C#Cc3cc(OC)cc(OC)c3)ccc21,10.6
4,Cc1cc(N/N=C/c2ccco2)c2ccccc2n1,10.7
5,O=C(NCc1ccco1)c1cc(-c2cccc(Cl)c2)on1,9.02
6,CCSc1nnc(-c2ccccc2N=Cc2c(C)[nH]n(-c3ccccc3)c2=O)c(=O)[nH]1,13.1
7,O=C(CN1CCOCC1)OCCCC1CCCCC1,12.1
8,CCn1c(=O)cc(SCC(=O)Nc2ccc(OC)c(OC)c2)c2ccccc21,10.1
9,CC(Sc1ccccc1)C(=O)N1CCN(S(=O)(=O)c2ccccc2F)CC1 (stereo not shown),11.5
10,Cc1nc(C)c(C(=O)OCC(=O)Nc2ccccc2)s1,2.04
11,COc1ccc(-c2nnc(SCC(=O)OC3CCCCC3)o2)cc1OC,13.5
12,Cc1cccc(NC(=O)C[n+]2cccc(C)c2)c1.[Cl-],1.4
13,Nc1nnc(SCC(=O)NNC(=O)c2ccc(F)cc2)s1,3.01
14,CCCCNC(=O)CCn1nc(-c2ccccc2)ccc1=O,-13.9
15,Cc1ccc(C)c(CN2CCSCC2)c1,12
16,O=C1C=C2C=C[C@H]3C[C@]2(O1)[C@@H]1CCCCN13,16.3
17,CCCCc1nc(SCC(=O)Nc2cc(C)on2)n[nH]1,11.8
18,CN1CCc2cc3c(c4c2C1CC41CCC(=NO)CC1)OCO3 (stereo not shown),4.82
19,CCOc1ccc(N(C(=O)Nc2ccccc2)C2=NCCC2)cc1,8.32
20,CCN(CC)S(=O)(=O)c1cccc(NN=c2c(=O)c3ccccc3c2=O)c1,11.5
21,CCOc1ccc(CCNC(=O)c2nccnc2C(=O)O)cc1OCC,17.1
22,CC(=O)c1ccc(NC(=O)CCOc2cc(C)ccc2C)cc1,-0.606

row,SMILES,"hERG current change (%, negative = inhibition) at 1uM [%]"
1,Cc1ccc(S(=O)(=O)N2CCN(S(=O)(=O)N(C)C)CC2)cc1,7.16
2,Cc1cccc(NC(=O)COc2ccccc2C(=O)NC(C)c2ccccc2)c1 (stereo not shown),15.8
3,COc1cc([N+](=O)[O-])cc(/C=N/NC(=O)c2cc(-c3ccccc3)nc3ccccc23)c1O,8.9
4,COc1ccc(-c2nc(SC(CC(=O)NCc3ccccc3)c3ccc(OC)c(OC)c3)n[nH]2)cc1 (stereo not shown),11.3
5,COCc1c(C(=O)N2CCN(c3ncccn3)CC2)oc2ccccc12,15.7
6,O=C(CCCn1c(=O)[nH]c2cc(Cl)ccc2c1=O)NCCC1=CCCCC1,13.3
7,COc1ccc2cnn(CCOc3ccccc3)c(=O)c2c1OC,-0.693
8,Cc1ccc2[nH]cc(CCNC(=O)C3CCCCC3)c2c1,12.3
9,O=[N+]([O-])c1ccc(NC2CCN(Cc3ccccc3)CC2)c2ccncc12,13.2
10,COc1ccc(COc2cccc(C=O)c2)cc1,17.5
11,CN(C(=O)c1coc(=O)c2ccccc12)c1ccc(F)cc1,9.4
12,Br.CC(C)(C)C(=O)Cn1c(NCCCO)nc2ccccc21,5.43
13,CCOC(=O)c1c(CSc2ccsc2)n(C)c2cc(Br)c(O)c(CN(C)C)c12.Cl,-88.5
14,COCCN=C1Sc2nc3ccc(C)cc3cc2CN1Cc1cccs1,3.73
15,CCN(CC)c1ccc(C(=O)NC(=S)Nc2cc(S(=O)(=O)N3CCOCC3)ccc2-n2cncn2)cc1,0.698
16,[Cl-].c1ccc(Cn2c[n+](Cc3ccccc3)cn2)cc1,6.03
17,COc1ccc(C2CC(c3ccccc3)=NN2C(=O)c2cccs2)cc1 (stereo not shown),0.986
18,CCN1CCN(CC(=O)Nc2cc3c(cc2C(C)=O)OCO3)CC1.O=C(O)C(=O)O,4.25
19,CCOC(=O)c1ccc(NC(=O)CN2C(=O)NC3(CCCCCC3)C2=O)cc1,7.54
20,C=CCSc1nnc(NC(=O)CN2C(=O)NC3(CCCC3)C2=O)s1,9.31
21,CNC(=O)c1cccnc1Nc1cccc(C(F)(F)F)c1,5.42
22,Cc1noc(C)c1COc1ccccc1C(=O)Nc1cccc(S(=O)(=O)N(C)C)c1,-18.5

row,SMILES,"hERG current change (%, negative = inhibition) at 1uM [%]"
1,CC(=O)Nc1c2c(nn1-c1ccc(C)cc1)CS(=O)(=O)C2,16.8
2,Cc1cccc(-n2c(SCC(=O)N3CC(=O)Nc4ccccc43)nc3ccccc3c2=O)c1,11.5
3,Cc1ccc2c(c1)c(C)c(C)n2CC(O)Cn1nnc2ccccc21 (stereo not shown),12.4
4,COc1cccc(CNC(=O)C2CCCN(S(=O)(=O)c3c(C)noc3/C=C/N(C)C)C2)c1 (stereo not shown),7.14
5,Cc1ccc(C(=O)NC2CCN(Cc3ccccc3)CC2)cc1S(=O)(=O)N1CCOCC1,4.96
6,COc1cc(NC(=O)c2cccc([N+](=O)[O-])c2C)ccc1NC(=O)c1ccco1,7.67
7,Cc1nc(C)c(C(=O)NNS(=O)(=O)c2ccccc2)s1,9.95
8,CCOc1ccc(-c2n[nH]c(=S)n2/N=C/c2cc3c(cc2[N+](=O)[O-])OCO3)cc1,6.98
9,CC(C)OCCCNC(=O)c1cn(C)c2ccc(S(=O)(=O)N3CCCC3)cc2c1=O,17.7
10,CC(=O)c1ccc(OC(C)C)c(CC(C(N)=O)C(N)=O)c1,16.3
11,O=C(CSc1nc2ccccc2[nH]1)c1c[nH]c2ccccc12,13.9
12,O=C(Nc1ccc(C(F)(F)F)cc1)N1CCN(c2ccnc3cc(Cl)ccc23)CC1,-0.0947
13,COc1ccccc1C(=O)NNC(=O)c1ccncc1,14.9
14,Cc1ccc(S(=O)(=O)N(C)C)cc1NC(=O)c1cc(-c2ccco2)nc2ccccc12,15.6
15,Cc1ccc2[nH]c(-c3ccccc3)c(CN3CCN(C)CC3)c(=O)c2c1,1.75
16,Cc1ccc(N2CC(C(=O)Nc3nnc(SCC(=O)Nc4nc(C)cs4)s3)CC2=O)cc1 (stereo not shown),13.9
17,COC(=O)c1cc(S(=O)(=O)NCCc2ccc(C)cc2)c[nH]1,3.18
18,Cc1cccc(C)c1NC(=O)C(NC=O)c1ccccc1Cl (stereo not shown),5.06
19,Cn1c(=O)oc2cc(S(=O)(=O)N3CCCC(C(=O)N4CCc5ccccc5C4)C3)ccc21 (stereo not shown),6.61
